The source of these data is article PMC4336329 (PLoS ONE, 2015).

Screen size: about 310,000 compounds; about 14,000 (4.5%) showed an effect of 50% or more. Effects have a minus sign here. This is one part of the list.
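Also: peak tail current of the secondary pulse compared with the same well before compound.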

Sequence of human ether-à-go-go-related gene (hERG) potassium channel (Q12809 whole entry, looked up): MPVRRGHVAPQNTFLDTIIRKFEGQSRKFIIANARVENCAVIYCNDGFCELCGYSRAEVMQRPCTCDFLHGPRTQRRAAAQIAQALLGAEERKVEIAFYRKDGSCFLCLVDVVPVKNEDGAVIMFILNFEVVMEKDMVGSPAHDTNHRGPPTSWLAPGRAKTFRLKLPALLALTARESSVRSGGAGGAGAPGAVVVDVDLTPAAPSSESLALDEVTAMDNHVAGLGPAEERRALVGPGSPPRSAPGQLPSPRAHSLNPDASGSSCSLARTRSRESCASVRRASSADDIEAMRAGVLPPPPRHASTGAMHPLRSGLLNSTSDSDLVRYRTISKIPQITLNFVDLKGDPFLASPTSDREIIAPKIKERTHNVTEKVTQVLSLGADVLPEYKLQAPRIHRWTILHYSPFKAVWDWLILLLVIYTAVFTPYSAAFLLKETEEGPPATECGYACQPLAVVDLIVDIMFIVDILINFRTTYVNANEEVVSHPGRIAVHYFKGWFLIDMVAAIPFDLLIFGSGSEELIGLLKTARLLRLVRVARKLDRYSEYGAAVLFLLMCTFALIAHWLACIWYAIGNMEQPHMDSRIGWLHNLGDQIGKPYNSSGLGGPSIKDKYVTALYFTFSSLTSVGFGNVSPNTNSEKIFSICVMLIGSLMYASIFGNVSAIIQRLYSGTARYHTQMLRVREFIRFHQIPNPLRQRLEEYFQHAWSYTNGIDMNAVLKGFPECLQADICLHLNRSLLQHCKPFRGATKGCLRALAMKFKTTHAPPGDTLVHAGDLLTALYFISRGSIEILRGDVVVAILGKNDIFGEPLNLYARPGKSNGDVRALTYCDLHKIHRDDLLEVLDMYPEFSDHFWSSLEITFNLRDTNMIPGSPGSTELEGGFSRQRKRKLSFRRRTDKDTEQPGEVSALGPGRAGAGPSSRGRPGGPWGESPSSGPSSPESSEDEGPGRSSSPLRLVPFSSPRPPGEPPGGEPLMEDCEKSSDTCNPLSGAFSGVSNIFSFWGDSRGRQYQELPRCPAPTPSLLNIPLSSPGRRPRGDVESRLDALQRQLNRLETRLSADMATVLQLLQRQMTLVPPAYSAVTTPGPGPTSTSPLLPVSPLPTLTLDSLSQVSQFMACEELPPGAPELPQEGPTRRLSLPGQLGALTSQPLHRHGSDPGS

This test concerns the target human ether-à-go-go-related gene (hERG) potassium channel (human, UniProt Q12809). Put plainly: primary screen, population patch clamp on CHO cells stably expressing hERG.
As for `CC(=O)Nc1ccc(N2CCN(Cc3ccccc3F)CC2)cc1`, the “hERG current change (%, negative = inhibition) at 10uM” value is listed as -25.7%.

`Cc1c(NC(=S)NC(=O)c2cccc(Br)c2)c(=O)n(-c2ccccc2)n1C`: the “hERG current change (%, negative = inhibition) at 10uM” value amounted to 8.41%.

As to `COc1cccc(C(=O)NCCS(=O)(=O)N2CCCCCC2)c1`, the “hERG current change (%, negative = inhibition) at 10uM” value is reported as -10.5%.

With `Cc1noc(C)c1S(=O)(=O)N(CC(=O)NCc1ccc(F)cc1)c1ccc(C(C)C)cc1`, the “hERG current change (%, negative = inhibition) at 10uM” value is given as 13.8%.

`CC1CCCCC1NC(=O)C(C)N1C(=O)c2ccccc2C1=O` (stereo not drawn): the “hERG current change (%, negative = inhibition) at 10uM” value is recorded as -1.72%.

With `CCOc1cccc2sc(NC(=O)c3ccc(Br)s3)nc12`, the “hERG current change (%, negative = inhibition) at 10uM” value is 18.6%.

For `COc1cc(OC)cc(-c2nc3ccccc3c(=O)n2OC(=O)c2ccc(Br)cc2)c1`, the “hERG current change (%, negative = inhibition) at 10uM” value is reported as 11.4%.

With `COc1ccccc1N1CCN(C(=O)CSc2nnc3c4ccccc4nc(Cc4ccccc4)n23)CC1`, the “hERG current change (%, negative = inhibition) at 10uM” value is on record as -4.18%.

With `Cl.NC(=O)c1c(NC(=O)C2COc3ccccc3O2)sc2c1CCN(Cc1ccccc1)C2` (stereo not drawn), the “hERG current change (%, negative = inhibition) at 10uM” value turned out to be 18.6%.

Regarding `CS(=O)(=O)c1ccccc1C(=O)Nc1cccc2ncccc12`, the “hERG current change (%, negative = inhibition) at 10uM” value came to 14.2%.

Regarding `O=C1c2ccccc2-c2c1cccc2C(=O)N1CCN(C(=O)c2ccco2)CC1`, the “hERG current change (%, negative = inhibition) at 10uM” value was -71.1%.

Regarding `CCc1noc(C)c1C(=O)OC(C)C(=O)NCc1ccc(OC)cc1` (stereo not drawn), the “hERG current change (%, negative = inhibition) at 10uM” value is listed as -15.3%.

Take `CCN(CC)c1nc2ccccc2nc1C(C#N)C(=O)NCCc1ccccc1` (stereo not drawn): the “hERG current change (%, negative = inhibition) at 10uM” value is -1.99%.

In the case of `CN(C)C(C)(C)C#CC(O)(c1ccccc1)c1ccccc1`, the “hERG current change (%, negative = inhibition) at 10uM” value is -26.6%.

In the case of `COc1ccc(Nc2ccc([N+](=O)[O-])cc2[N+](=O)[O-])cc1`, the “hERG current change (%, negative = inhibition) at 10uM” value was -32.5%.

For the compound `COc1ccccc1CNC(=O)C(=O)NCC1OCCCN1S(=O)(=O)c1ccc(F)cc1C` (stereo not drawn), the “hERG current change (%, negative = inhibition) at 10uM” value was determined as 9.82%.

With `CC(=O)Nc1ccc(S(=O)(=O)N2CCC(C(=O)O)(c3ccccc3)CC2)cc1`, the “hERG current change (%, negative = inhibition) at 10uM” value is on record as 17.8%.

For `O=S(=O)(NCC(c1ccco1)N1CCN(c2ccc(F)cc2)CC1)c1ccc(F)cc1` (stereo not drawn), the “hERG current change (%, negative = inhibition) at 10uM” value is recorded as -0.721%.

In the case of `Cc1c(C(c2cccc(O)c2)c2c(C)n(C)n(-c3ccccc3)c2=O)c(=O)n(-c2ccccc2)n1C`, the “hERG current change (%, negative = inhibition) at 10uM” value is 13.1%.

Regarding `COc1ccc(C)cc1NC(=O)c1ccc2c(O)c(S(=O)(=O)c3ccccc3)c(=O)[nH]c2c1`, the “hERG current change (%, negative = inhibition) at 10uM” value is 8.01%.

`COc1ccc(N2C(=O)/C(=C\c3ccco3)N=C2SCC(=O)N(C(C)C)C(C)C)cc1Cl`: the “hERG current change (%, negative = inhibition) at 10uM” value is 22.7%.

On to `CC(=O)O.NCC(c1ccco1)c1c[nH]c2ccccc12` (stereo not drawn), for which the “hERG current change (%, negative = inhibition) at 10uM” value stood at 8.43%.

Regarding `Cc1c(C(=O)O)cc(C(C)(C)C)n1CCSCCO`, the “hERG current change (%, negative = inhibition) at 10uM” value is 4.77%.

`COC(=O)c1c(NC(=O)CSc2nnc(-c3ccco3)n2Cc2ccccc2)sc(C)c1C`: the “hERG current change (%, negative = inhibition) at 10uM” value amounted to 4.42%.

Consider `CCC(Sc1nc2ccccc2s1)C(=O)Nc1cc(C)on1` (stereo not drawn), for which the “hERG current change (%, negative = inhibition) at 10uM” value is on record as 2.98%.

With `Oc1ccccc1C1CCCCC1c1ccccc1` (stereo not drawn), the “hERG current change (%, negative = inhibition) at 10uM” value is 12.5%.

Regarding `Cc1ccc(NC(=O)CCNC(=O)c2ccc([N+](=O)[O-])cc2)cc1S(=O)(=O)N1CCOCC1`, the “hERG current change (%, negative = inhibition) at 10uM” value was -47.4%.

In the case of `COc1ccc(CCNC(=O)c2ccc(-c3ccc([N+](=O)[O-])cc3)o2)cc1OC`, the “hERG current change (%, negative = inhibition) at 10uM” value is listed as -60.7%.

As for `O=C(N/N=C1/CC(c2ccccc2)Oc2ccccc21)C1CC1` (stereo not drawn), the “hERG current change (%, negative = inhibition) at 10uM” value is recorded as -1.94%.

As to `Cc1ccc(-n2nc(C)c(/C=N/NC(=O)c3cccnc3)c2Cl)cc1`, the “hERG current change (%, negative = inhibition) at 10uM” value is reported as -1.52%.

`CCOc1ccc(-n2c(COc3ccccc3)nnc2SCC(N)=O)cc1`: the “hERG current change (%, negative = inhibition) at 10uM” value is -13.8%.

As for `COc1ccc(C(=O)NCc2cnn(C)c2)cc1OC1CCN(C(C)C)CC1`, the “hERG current change (%, negative = inhibition) at 10uM” value is reported as 21.9%.

On to `O=S(=O)(c1cccc(C(F)(F)F)c1)c1ccc(O)cn1`, for which the “hERG current change (%, negative = inhibition) at 10uM” value is recorded as 0.938%.

`S=C(NCCOCCOCCNC(=S)Nc1ccccc1)Nc1ccccc1`: the “hERG current change (%, negative = inhibition) at 10uM” value is -15.5%.

Consider `CCOC(=O)c1c(S(=O)(=O)Nc2cccc(-c3ccno3)c2)c(C)n(C)c1C`, for which the “hERG current change (%, negative = inhibition) at 10uM” value amounted to 6.78%.

As to `Nc1ccc(C2(c3ccc(N)cc3)CCCCC2)cc1`, the “hERG current change (%, negative = inhibition) at 10uM” value was 22.1%.

Turning to `CCn1cnc2sc(C(=O)Nc3ccc4c(c3)OCO4)c(C)c2c1=O`, the “hERG current change (%, negative = inhibition) at 10uM” value turned out to be 0.755%.

In the case of `O=C(NCc1n[nH]c(=S)n1-c1cccc(C(F)(F)F)c1)c1ccco1`, the “hERG current change (%, negative = inhibition) at 10uM” value was 18.6%.

On to `CC(C)(C)n1ncc2c(=O)n(CC(=O)Nc3ccc(Cl)cc3)cnc21`, for which the “hERG current change (%, negative = inhibition) at 10uM” value is reported as -11.2%.

Take `Cn1c(=O)c(=O)n(C)c2cc(S(=O)(=O)N3CCN(C4CCCCC4)CC3)ccc21`: the “hERG current change (%, negative = inhibition) at 10uM” value is -18.7%.

`CCCN(CCC)S(=O)(=O)c1ccc(NC(=O)C2CCCO2)cc1` (stereo not drawn): the “hERG current change (%, negative = inhibition) at 10uM” value is given as -64.4%.

Take `Cc1ccc(S(=O)(=O)N2CCN(Cc3cccc(C)c3O)CC2)cc1`: the “hERG current change (%, negative = inhibition) at 10uM” value was determined as 16.5%.

Consider `Cc1ccc2nc(C)cc(NCCO)c2c1.Cl`, for which the “hERG current change (%, negative = inhibition) at 10uM” value is listed as -26.4%.

As for `COc1ccc(OCC(=O)Nc2ccc3c(c2)C(=O)NC3=O)cc1`, the “hERG current change (%, negative = inhibition) at 10uM” value is 10.1%.

`c1ccc2c(-c3nc(C4CCCCC4)no3)cc(-c3ccncc3)nc2c1`: the “hERG current change (%, negative = inhibition) at 10uM” value was -3.96%.

Take `Cc1nc2ccccn2c1C(=O)NC1CCCC1`: the “hERG current change (%, negative = inhibition) at 10uM” value is 16.2%.

On to `CCN(CC)CC#CCC(O)(c1ccccc1)c1ccccc1`, for which the “hERG current change (%, negative = inhibition) at 10uM” value is -25.1%.

`Cc1ccc(C(=O)NCC(=O)OCCCOC(=O)CNC(=O)c2ccc(C)cc2)cc1`: the “hERG current change (%, negative = inhibition) at 10uM” value was -1.87%.

For the compound `Nc1c(C=C2C=CC(=O)C=C2)c(=O)nc2sc(CC(=O)N3CCCC3)nn12`, the “hERG current change (%, negative = inhibition) at 10uM” value was found to be 8.79%.

In the case of `Cc1ccc(CNc2ccc3c(c2)ncn3C(C)C)cc1`, the “hERG current change (%, negative = inhibition) at 10uM” value is -78.3%.

As to `O=C(NCC1CCCO1)c1ccc(COCC(F)(F)C(F)F)cc1` (stereo not drawn), the “hERG current change (%, negative = inhibition) at 10uM” value is -10.5%.

On to `Cc1ccc(S(=O)(=O)Cn2nnnc2C(c2ccc(F)cc2)N2CCC(C(N)=O)CC2)cc1` (stereo not drawn), for which the “hERG current change (%, negative = inhibition) at 10uM” value was -44.1%.

Turning to `COc1ccc(C2C3=C(CC(C)(C)CC3=O)N(C)C3=C2C(=O)CC(C)(C)C3)cc1OC`, the “hERG current change (%, negative = inhibition) at 10uM” value came out at 4.58%.

`Cc1ccc(-c2nc(CN(C)Cc3ccc4nccnc4c3)c(C)o2)s1`: the “hERG current change (%, negative = inhibition) at 10uM” value is -10.3%.
